Experimental data: the supplement of paper PMC11417369
The other results are listed elsewhere or left out.

tested on: PfHDP1 homeodomain (GST-tagged); test: gcPBM binding intensity (ln(normalized median fluorescence intensity)); higher = stronger DNA binding
Procedure, shortened: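 DNA-binding domains from P. falciparum, fused to GST and produced in E. coli, were put on an Agilent 4 × 180k double-stranded probe array for 1 h in 1× PBS holding 1% milk, 0.2 mg/ml BSA, 0.5% salmon testes DNA and 0.03% Triton X-100. Probes were primer-extended, 36 bp long and drawn from intergenic genomic regions, with negative controls included. After Alexa488 anti-GST antibody detection and a 488 nm scan, binding intensity was set as the highest Masliner-normalised natural-log median intensity across replicate spots of either probe orientation.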

Sequence	gcPBM binding intensity (ln)
CGAAAGAAAAAAAGCACACACAGTTTTGAGCAATGA [CACACA_site2109]	8.82
ACAAAAAAGTAAAAAGTGCATGTAAAATATAAGTAT [GTGCAC_site9438]	8.36
TAAATATATAATTGTAGTACTGTTTTATGTTCATAA [XGTACX_site1020]	6.17
AAAAAATTTCAAATAACACACACTAATATATATATG [CACACA_site1426]	6.69
AATATTCACATTTGTTGTACATTCCTAGTTATATAA [XGTACX_site491]	7.02
AAGGAAAATTTTTGGTGTACACAAAAAAATCCAAAA [XGTACX_site3596]	7.25
TAAACAGATATATTTTGTACATATTGTATATTTTGT [XGTACX_site713]	6.12
ACACATATGACAAATAGTACATAAATATATAAATAT [XGTACX_site7141]	6.43
TATATATCGCCCTTCACACACACACGGATATAAATA [CACACA_site7221]	7.09
ATAATAAATATATAATGTACATATTATGTTCTTTAT [XGTACX_site8655]	6.3
CGCTCTTATAAATGTTGTACATAAAACTGTTCATTA [XGTACX_site3409]	6.49
TTTTGTAGATATTGAAGTACAAAAAAAATGTAAAAG [XGTACX_site5905]	6.83
ATCGGTAATATTAACACACACATTTATATATATTTA [CACACA_site1084]	6.83
TCACTACATTTTGGACGTACACAACTTGATATATTG [XGTACX_site4775]	6.87
TTTTTTTTTTTTTTTTGTACATATAAAAATACGTAA [XGTACX_site6003]	6.59
CACACGCACAGACACACACACACACGGATATAAATA [CACACA_site6301]	7.76
AAATCTTAACTCTATGCACACATAAAAGTATATAAA [CACACA_site8709]	9.66
ATGATATACTTGAGTGTGCACAAACTATTACTTACA	11
ATATATATATATATATGTACATATTTGATTTTTCTT [XGTACX_site8171]	9.3
ACAACATATGTTATCACACACATATAAATATAAATA [CACACA_site7038]	6.5
ATTTTGATGATGTATGCACACATTGAAAATGAGAAA [CACACA_site2916]	8.96
CTCTACGAATTCATAGTGCAAAGAGCTAATTTTTTC [GTGCAC_site9710]	7.29
TCTTTTATGATATTTACACACAAACGTGAGATAGCT [CACACA_site2312]	6.63

Sequence	gcPBM binding intensity (ln)
AACATTATGTTTATTTGTACATATAAATATATGTAA [XGTACX_site7389]	6.3
GATCATTCAGTTTTATCACACACAATCAAACATATA [CACACA_site8882]	6.79
ATATTTTGATAATATTGTACAAAAACATTAAAATGT [XGTACX_site8361]	6.29
CATAATGTAAATAAGTGTACACATATATAATACATA [XGTACX_site3108]	6.87
TTTTTTAATATATTATTATAAATATTTTTTATGTGT [GTGCAC_negctrl_site712]	6.46
ATGCGTTAATCTATATATATTATGTATAGATTTTCA [CACACA_negctrl_site1650]	6.23
AACATATTTATGATGTGTACCTACATAATAGAATTT [XGTACX_site141]	5.96
TACATAATAACATGTACACACATTCTTCTATAAATG [CACACA_site4061]	6.64
ACATAATAAAAATGACGTACAATTTTTTTTTTTCAT [XGTACX_site8340]	6.2
CATTAAAAAGAAAGTTCACACACATATATATGACGG [CACACA_site8836]	6.91
ACTACATAATATTAACGTACATATTATAATACTTGC [XGTACX_site954]	6.77
ATATAACACATTAGTTGTACTATTTTTAATTGGTGA [XGTACX_site961]	6.4
TATATATATATGTGCACACCAATTGTATGTAATATA [CACACA_site3889]	10.6
TATTTAATTACATGAACACACATTATATATTTTTAA [CACACA_site5615]	6.35
TTTATATTATTAGAAACACACATTAGATTAAAATTA [CACACA_site3286]	6.21
TTCAAATTTCCACATACACACCTTGTAGATCTATAT [CACACA_site6270]	6.93
CAATGTTGTACATACACACACACAAAAAAAAAATAA [CACACA_site2407]	6.75
ATAAAAAAACACACTCGTACACACATATTTTCTTTC [XGTACX_site6565]	6.82
GATAATAATAAACAACCACACACAAAAAAACAAAAA [CACACA_site9074]	7.01
TGCTATAATTTATATACACACAAATATATACACATA [CACACA_site9356]	6.83
TTACAATAAATTATAGTGCAATATTTTATTTAATAT	10.6
TAGCCCATATGGAATACACACTGAAAATAAAAAAAG [CACACA_site5799]	6.67
AAAAAAAAAAAAAAAAAAAAAAAAAAAAAAACATAT [GTGCAC_negctrl_site580]	7.44

Sequence	gcPBM binding intensity (ln)
ATGAATAATTAATGATGTACTTAAAAAAAAAAATAT [XGTACX_site6346]	6.41
ATATATTATATTGAATGTACATATATATATTATATA [XGTACX_site8445]	6.58
GTTAATATCTTGAACAGTACTCTAAATATCTACATA [XGTACX_site5358]	6.17
ATAATATAATTTTGCAGTACCCAAAAAACAAAATAA [XGTACX_site4827]	7.09
AAAGTATAATAATACACACACTTTAAAAGTTAAATG [CACACA_site7550]	6.57
AATATGATATATATATGTACATATATATAATATAAT [XGTACX_site3072]	6.67
ATATAGGTAAAAAGTATACACACGTTGACACATTCT [CACACA_site1199]	6.42
GCACATTTTTTTATCACACATATAATTACAATATAA [CACACA_site5585]	6.95
TACGTATGCCTGTGATGTACATATATATATACATAC [XGTACX_site4728]	7.04
TTTCGGTTTTTTTTTATTTTTTTTTTTTTATTATTT [CACACA_negctrl_site335]	6.31
AAAAGATGCGCATACACACAGATGAATAACAAAAAA [CACACA_site6865]	8.07
TGACTATGTATATTTAGTACATAAAATCAATAATAT [XGTACX_site4082]	6.32
AAGGGTTGCCTGTGTAGTACATATATATATATATAT [XGTACX_site8555]	9.24
AGGGAAAAAAAAAAAGTGCATTTGTATTAAATGAAT	8.15
AAATATAAGAAAAAGGTGCTTTTTTTTTTTTTTTTT [GTGCAC_site9700]	6.57
GTAAACAAAATATTTTGTACATATTTTATATTATTT [XGTACX_site7837]	6.33
TCATTCATAAAAATAACACACAAAAAAAAAAAAAAA [CACACA_site1800]	6.3
AAATTATATTATTGAACACACGTTTGGTAATGTTTT [CACACA_site5469]	6
GGACATTTTTATAAGGTGCACGGTTTTGATATTACT [GTGCAC_site9892]	10.3
ATAATGATATATAGTACACACAAAAATGGAAGTAAA [CACACA_site7541]	7.04
AACCACATACATATAACACACATATACAATATATAT [CACACA_site8607]	6.68
TCATTATATCATGGTAGTACTCATTAATAATACGTA [XGTACX_site8701]	6.48
GTTAATAAAAATATATGTACATAATTATTATGAAAA [XGTACX_site3030]	6.67

Sequence	gcPBM binding intensity (ln)
AATATTATTTAGGAGCGTACGTTTTATTTACATATT [XGTACX_site5188]	6.81
TATATATTTTTTAAACCACACACAATATAGAGTATA [CACACA_site8106]	6.79
TTTTTTTTTTTAAAAAGTACACAATTAATTAATATA [XGTACX_site8494]	6.41
ATATTGTTTTATATAGAACACACATAAAAATATATA [CACACA_site8314]	6.53
GGCATAAATATATGCACACACAAAAAAAAAAAAAAA [CACACA_site59]	9.94
GAAAGAATAAAATTTACACACATATATATATACATA [CACACA_site2250]	6.44
ATATATATATATATATGTACTTATTTGAATACTAAA [XGTACX_site2330]	9.2
AAAATAAGAAATAGATGTACTTATAAATAAATACAA [XGTACX_site4441]	5.62
TTATTGAAAAAAGAACAAAAAAAAAAAGAAAAATTA [XGTACX_negctrl_site438]	6.1
TATAAACATTATAAATGTACAAATATATATATATAT [XGTACX_site3218]	9.09
GAAATTTCCCATATTACACACATACTATGATATATA [CACACA_site5987]	6.89
TTTTTTATTTTTGCGTGTACATAATAATGAATCTTC [XGTACX_site8077]	6.58
ATCTATAAATTTCCACGTACATATATATATATATAT [XGTACX_site4502]	9.45
TTTTAAATATATGTGCTATTATATTAAGAGATGTAA [GTGCAC_negctrl_site560]	6.44
CCTCTTTTTATTCTCACACACGTTTATATATAAAGT [CACACA_site4992]	7.51
CATTAAATATATAAATGTACAAATATATTTTTCAAA [XGTACX_site4429]	6.22
TTAATGTAGAGAAAATGTACATTTTATTAAAACAAT [XGTACX_site6376]	6.51
TTGTTCATATTTTTTATTGTGTTAATATTTATAAAA [GTGCAC_negctrl_site423]	6.83
CCTATTTATAAATACACACACATATATAAATAAATA [CACACA_site5629]	7.08
TATTTATAGATATATACACACATATTTATATTTATA [CACACA_site6441]	6.51
